{
  "source": "PubChem BioAssay AID1865",
  "about": "(National Center for Advancing Translational Sciences (NCATS), 2009)",
  "note": "Among all 280,000 compounds or so, about 540 (0.19%) were called active. The shares of active, inactive and inconclusive entries below differ from those in the screen. Calls come from the whole dose curve; as a rule, active = well fitted activation curve with a large enough effect; inconclusive = small, poorly fitted or top-dose-only effect; inactive = flat fitted curve, though single readings scatter. Where the call is inconclusive, the potency comes from a doubtful curve fit. Potency is the fitted concentration of half-maximal effect; tags give direction and shape of the fitted curve.",
  "data": [
    {"experiment": "Quantitative High-Throughput Screen for Regulators of Epigenetic Control; note: nearly all actives have a fitted effect of over 60% in size; for GFP activation: % of control where 0% means no effect", "conditions": "murine LDR cells, GFP reporter derepression, 30 h; GFP activation: at 53.9 µM (top of the series)", "outline": "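GFP-positive cell count by laser-scanning cytometry (objects 20–120 um) after 30 h, 37 C compound exposure of murine LDR cells; reporter is CMV-GFP integrated at a silenced locus, inducible by HDAC or DNMT inhibitors.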", "values": [
      {"compound": "Cc1cccc(CN2C(=O)N/C(=C/c3ccc(C)s3)C2=O)c1", "Potency": "inconclusive: 28.2 µM [activator, single point]"},
      {"compound": "Cc1ccccc1N=C/C=C1/C=C(c2ccccc2)OC(C)(C)O1", "Potency": "active: 22.4 µM"},
      {"compound": "Cc1cccc(N2CCN(S(=O)(=O)c3cc(C(=O)Nc4ccccc4Cl)ccc3F)CC2)c1C", "Potency": "inactive"},
      {"compound": "COc1cc(/C=C(\\C#N)c2nc3ccccc3o2)ccc1O", "Potency": "active: 2.24 µM"},
      {"compound": "CO[C@@H]1/C=C\\CC(=O)N2CCC[C@@H]2C(=O)OC[C@H](C)C(=O)OC[C@H]1C", "GFP activation": "inactive: 0% [at 10.1 µM]"},
      {"compound": "O=C(NCCc1cn2ccsc2n1)C1CCCCC1", "Potency": "inactive"},
      {"compound": "CSc1ccc(CCNC(=O)CN2C(=O)c3cccnc3Oc3ccc(Cl)cc32)cc1", "Potency": "inconclusive: 35.5 µM [activator, single point]"},
      {"compound": "Cc1c(-c2nsc(NC(=O)c3cccc(Cl)c3)n2)nnn1-c1ccccc1C(F)(F)F", "Potency": "inactive"},
      {"compound": "Cc1ccc(/C=C/C(=O)N2CCN(S(=O)(=O)c3ccc(C)c(C)c3)CC2)o1", "Potency": "inconclusive: 28.2 µM [activator, single point]"},
      {"compound": "CCOc1cc(C(=O)Nc2ccc([N+](=O)[O-])cn2)cc(OCC)c1OCC", "Potency": "inactive"},
      {"compound": "CC(=O)c1c(C)[nH]c(C(=O)OCC(=O)Nc2sc3c(c2C#N)CCCC3)c1C", "Potency": "inconclusive: 20 µM [activator, single point]"},
      {"compound": "CC(C)N1CCc2c(sc(NC(=O)c3ccc(S(=O)(=O)N4CCc5ccccc54)cc3)c2C(N)=O)C1", "Potency": "inconclusive: 31.6 µM [activator, single point]"},
      {"compound": "COc1ccc(CNCCC(c2ccccc2)c2ccc3c(c2)OCO3)cc1", "note": "(configuration not stated)", "Potency": "inactive"},
      {"compound": "Cn1c(/C=C/c2ccc([N+](=O)[O-])o2)nc2ccccc2c1=O", "Potency": "inconclusive: 20 µM [activator, single point]"},
      {"compound": "COc1ccc(NC(=O)Cn2cnc3ccc(S(=O)(=O)N4CCC(C)CC4)cc3c2=O)cc1OC", "Potency": "inconclusive: 3.55 µM [activator, single point]"},
      {"compound": "COc1ccc(OCCSc2ncnc3nc[nH]c23)cc1", "Potency": "inactive"},
      {"compound": "O=C(CN1CCN(c2ccc(F)cc2)CC1)Nc1nnc(-c2ccccc2)s1", "Potency": "inactive"},
      {"compound": "COc1ccccc1CNC(=O)CCC1N=C2c3ccccc3N=C(SCc3ccc(C)cc3)N2C1=O", "note": "(configuration not stated)", "Potency": "inactive"},
      {"compound": "COc1ccc2c(c1)c1nc3ccccc3nc1n2CC(=O)OC(C)C", "Potency": "inconclusive: 7.08 µM [activator, partial curve]"},
      {"compound": "CSC1=NC(C)(C)C=C(/C=C/c2ccc(Cl)cc2Cl)N1", "Potency": "inconclusive: 28.2 µM [activator, single point]"},
      {"compound": "N#C/C(=C\\c1cccc([N+](=O)[O-])c1)C(=O)NCc1ccc(Cl)cc1", "Potency": "inconclusive: 35.5 µM [activator, single point]"},
      {"compound": "CC(=O)c1ccc(NC(=O)Cn2cc(S(=O)(=O)Cc3ccccc3Cl)c3ccccc32)cc1", "Potency": "inconclusive: 28.2 µM [activator, single point]"},
      {"compound": "COCC(=O)OC/C(O)=C(\\C#N)c1nc2ccccc2[nH]1", "Potency": "inconclusive: 5.62 µM [activator, single point]"},
      {"compound": "CCOC(=O)C(C(=O)OCC)C(Nc1ccc(Br)cc1)c1ccccc1", "note": "(configuration not stated)", "Potency": "inconclusive: 31.6 µM [activator, single point]"},
      {"compound": "O=C(O)C(S)[C@@H](S)C(=O)O", "note": "(some centres not stated)", "Potency": "inactive"},
      {"compound": "COC(=O)c1ccc(NC(=O)CSc2ncc3c(n2)-c2cc(Cl)ccc2N(Cc2ccccc2)S3(=O)=O)cc1", "Potency": "inconclusive: 17.8 µM [activator, single point]"},
      {"compound": "CC1Cn2c(nc3sc4c(c3c2=O)CCC4)N1CCO", "note": "(configuration not stated)", "Potency": "inconclusive: 6.31 µM [activator, single point]"},
      {"compound": "O=C(COC(=O)c1ccc(Br)o1)NCCc1ccccc1", "Potency": "inconclusive: 10 µM [activator, partial curve]"},
      {"compound": "O=C(COc1ccc(Cl)cc1)Nc1nnc(-c2ccco2)o1", "Potency": "inactive"},
      {"compound": "CC(C)(C)NC(=O)NC(=O)CSc1ncccn1", "Potency": "inactive"},
      {"compound": "Cc1cccc(OCC(=O)NNC(=O)c2cc3ccccc3oc2=O)c1", "Potency": "inactive"},
      {"compound": "O=[N+]([O-])c1ccc(-c2ccc(/C=N/Nc3nc(N4CCCCC4)nc(N4CCCCC4)n3)o2)cc1", "Potency": "inconclusive: 2.82 µM [activator, full curve]"},
      {"compound": "O=C(CCSc1ccccc1Cl)Nc1cccc([N+](=O)[O-])c1", "Potency": "inactive"},
      {"compound": "N#C/C(=C(/O)COC(=O)c1ccc(C#N)cc1)c1nc2ccccc2s1", "Potency": "inconclusive: 28.2 µM [activator, single point]"},
      {"compound": "Cc1nnc(NC(=O)CSc2ccc(-c3ccco3)nn2)s1", "Potency": "inactive"},
      {"compound": "COc1ccc(-n2c(N)c(C#N)c3ccc([N+](=O)[O-])cc3c2=O)cc1", "Potency": "inconclusive: 14.1 µM [activator, partial curve]"},
      {"compound": "Cc1ccc(N(CC(=O)Nc2cccc(Cl)c2)S(=O)(=O)c2cccs2)cc1", "Potency": "inactive"},
      {"compound": "COc1cccc(CNC(=O)c2cc3c(=O)oc4ccc(C)cc4c3s2)c1", "Potency": "inactive"},
      {"compound": "COc1ccc(NC(=O)C(C)N2Cc3ccccc3C2=O)cc1OC", "note": "(configuration not stated)", "Potency": "inactive"},
      {"compound": "COc1cc(N=Nc2cccc(S(N)(=O)=O)c2)c2ccccc2c1N", "Potency": "active: 31.6 µM"},
      {"compound": "CC1(C)CC(N=Cc2c(O)n(Cc3ccc4c(c3)OCO4)c(=O)c3ccccc23)CC(C)(C)N1", "Potency": "inconclusive: 31.6 µM [activator, single point]"},
      {"compound": "CC(=O)Nc1sc2c(c1-c1nc3ccccc3s1)CCN(C(C)C)C2", "Potency": "active: 3.98 µM"},
      {"compound": "O=C(CSc1nc2ccsc2c(=O)n1-c1ccc(Br)cc1)NCc1ccc(Cl)cc1", "Potency": "inconclusive: 35.5 µM [activator, single point]"},
      {"compound": "O=C(Cn1c(=O)n(Cc2ccc(F)cc2)c(=O)c2sc3ccccc3c21)Nc1ccc(F)cc1F", "Potency": "inconclusive: 0.1 µM [activator, partial curve]"},
      {"compound": "Cc1cc(-c2csc(N)n2)c(C)n1C", "Potency": "inactive"},
      {"compound": "CC(C)COc1ccc(C(=O)N(Cc2cccc(F)c2)C2CCS(=O)(=O)C2)cc1", "note": "(configuration not stated)", "Potency": "inactive"},
      {"compound": "Cc1cc(C)c2c(N)c(C(=O)N/N=C/c3cccs3)sc2n1", "Potency": "inconclusive: 28.2 µM [activator, single point]"}
    ]}
  ]
}
